Experimental data from PubChem BioAssay AID1508624 (National Center for Advancing Translational Sciences (NCATS), 2021).
Among all 48,000 compounds or so, about 120 (0.25%) were called active. About 4% were inconclusive and are not listed. Calls follow the shape of the dose curve; as a rule, active = well fitted activation curve with a large enough effect; inconclusive = small, poorly fitted or top-dose-only effect, or another doubt; inactive = no such curve, though single readings can be large or run the other way. Some of the results follow.

Assay: Primary qHTS for Identification of Small Molecule Activators of Huntingtin-Antisense Promoter Activity; also: nearly all actives have a fitted effect of over 55% in size
Conditions: HEK293 HTT-AS promoter firefly luciferase reporter, 24 h; series mostly up to 57.5 µM; activity change, positive = activation: at the top concentration
Summary of the method: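 Firefly luciferase readout (Dual-Glo, 10 min RT) after 24 h, 37 °C compound exposure (final up to 57.5 uM) of HEK293 reporter cells cultured 24 h beforehand; PTC124 at 50 uM final as control inhibitor; activity scaled vehicle 0%, zero RLU -100%.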

Row | Compound | activity change, positive = activation
1 | Cc1cc(C)c2c(=O)cc(C(=O)Nc3nc4ccc(F)cc4s3)oc2c1 | inactive: 9.12%
2 | CCCN(CCC)CC(O)Cn1cc(/C=C/C(=O)c2ccc(OC)cc2)c2ccccc21 (stereo not given) | inactive: -36%
3 | Cc1ccc(C(=O)Oc2ccc(C(O)CNC(C)(C)C)cc2OC(=O)c2ccc(C)cc2)cc1 (stereo not given) | inactive: -10.4%
4 | CCC(CC)C(=O)Nc1c(C(=O)N2CCN(c3ccccc3)CC2)oc2ccccc12 | inactive: -34.3%
5 | COC(=O)c1ccc(NC(=O)CCc2c(C)nn(-c3ccc(N4CCOCC4)nn3)c2C)cc1 | inactive: 8.16%
6 | O=C(Nc1ccc(F)cc1)c1ccc(Cn2nc(N3CCN(c4ccccc4)CC3)ccc2=O)o1 | inactive: -42%
7 | COc1ccc(CCNc2nc(-c3ccc(Cl)cc3)cc(C(F)(F)F)n2)cc1OC | inactive: -38.2%
8 | CCOC(=O)c1c(C)[nH]c(C)c1S(=O)(=O)N1CCC(C(=O)N2CCN(c3cccc(C)c3C)CC2)CC1 | inactive: -26.5%
9 | COc1ccccc1-c1nc2c(c(SCc3ccc(F)cc3Cl)n1)Cc1c(CO)cnc(C)c1O2 | inactive: -9.41%
10 | CCc1ccc(NC(=O)c2sc3nc4c(cc3c2N)CN(CC)CC4)cc1 | inactive: -13.2%
11 | COc1ccc(Cl)cc1NC(=O)Cc1coc2c(C)c(C)ccc12 | inactive: -28%
12 | N=c1n(CCO)c2ccccc2n1Cc1ccccc1F | inactive: -13.3%
13 | O=C(CSc1c2c(nc3ccc(Cl)cc13)CCCC2)NCc1ccccc1Cl | inactive: -17.5%
14 | COc1ccc(CCNC(=O)c2cc(=O)c3cc(C)cc(C)c3o2)cc1OC | inactive: 9.1% [at 11.5 µM, percent change from vehicle, -100% = no light]
15 | O=C(OCc1ccco1)c1ccc2c(c1)N(Cc1cccc(F)c1)C(=O)c1ccccc1S2 | inactive: -35.4%
16 | COc1ccc(Br)c(C(=O)Nc2cc3c(cc2N2CCCC2)n(C)c(=O)c(=O)n3C)c1 | inactive: -5.75%
17 | Cc1ccc(-c2cc(C(=O)OCC(=O)c3ccccc3)c3cccc(Cl)c3n2)cc1 | inactive: 24.9%
18 | CCC(Sc1nc2ccccc2c2nc(CCn3c(C)nc4ccccc43)nn12)C(=O)Nc1ccc(F)cc1 (stereo not given) | inactive: -6.83%
19 | CCCCNC(=O)c1cccc(-n2cnc3cccnc32)c1C | inactive: 2.47%
20 | CC1CCCCN1C(=O)c1ccc2c(c1)N(Cc1cccc(Cl)c1)C(=O)c1ccccc1S2=O (stereo not given) | inactive: -28.6%
21 | Cc1cc(N(C)Cc2ccccc2)n2nc(-c3ccc(C(C)(C)C)cc3)nc2n1 | inactive: -13.8%
22 | Cc1ccc(-n2nc(C(C)(C)C)cc2NC(=O)Nc2ccc(OCCN3CCOCC3)c3ccccc23)cc1 | inactive
23 | COc1ccc(OCCn2nnc3sc4c(c3c2=O)CCC(C(C)(C)C)C4)cc1 (stereo not given) | inactive: -3.03%

Row | Compound | activity change, positive = activation
24 | CC1CCN(c2nc3c(-c4cccc(Br)c4)nnn3c3ccccc23)CC1 | inactive: 1.84%
25 | CCc1ccc(-n2nc3cc(C)c(NC(=O)c4ccccc4C)cc3n2)cc1 | inactive: 9.48%
26 | CCOc1ccc(-c2c(C)nn3c(C)c(C(=O)NCc4ccc(Cl)cc4)cnc23)cc1OCC | inactive: -22.4%
27 | CCC(NC(=O)Nc1cc(Cl)ccc1OC)c1c(-n2cccc2)sc2c1CCN(C)C2 (stereo not given) | inactive: -14%
28 | CCCCCn1c(=O)[nH]c2cc(C(=O)NCCN(C)CCCC)ccc2c1=O | inactive: -8.81%
29 | COc1cc(NC(=O)c2cnn(-c3cccc(F)c3)c2C2CCNCC2)cc(OC)c1OC | inactive: -0.101%
30 | CCc1nnc(NC(=O)CSCc2cc(=O)c3ccc(C)cc3[nH]2)s1 | inactive: -18.2%
31 | Cc1cc(O)c(C(c2ccccc2Cl)N2CCN(c3ccccc3)CC2)c(=O)n1Cc1ccco1 (stereo not given) | inactive: 14.3%
32 | Cc1ccc(C)c(NC(=O)CCCn2nc(C)c3sc4ccccc4c3c2=O)c1 | inactive: -0.0111%
33 | COc1cc(CN(C(=O)COc2ccc(C)c(C)c2)c2ccccn2)cc(OC)c1OC | inactive: -30.4%
34 | COc1ccc(NC(=O)CN(Cc2ccccc2)S(=O)(=O)c2ccc3nc(C)sc3c2)cc1 | inactive: -21.3%
35 | CCCN(CCC)CCNC(=O)c1cc2c(-c3ccccc3F)nn(C)c2s1 | inactive: -16.3%
36 | CNC(=O)c1ccc(C)c(-n2c(C)cc(OCc3ccc(F)cc3F)c(Br)c2=O)c1 | inactive: 1.79%
37 | O=C(CSc1oc(-c2ccco2)nc1S(=O)(=O)c1ccc(Cl)cc1)c1ccc(Cl)cc1 | inactive: -16.9%
38 | Cc1ccc2oc(=O)c3cc(C(=O)N(Cc4ccccc4)C(C)C)sc3c2c1 | inactive: -15.9%
39 | Cc1ccc(CN2c3ccccc3S(=O)(=O)c3ccccc32)cc1 | inactive: -18.1%
40 | COc1ccc(CNC(=O)CC2N=C3c4ccccc4N=C(SCC(=O)Nc4ccc(N(C)C)cc4)N3C2=O)cc1 (stereo not given) | inactive: -30.3%
41 | Cc1ccc(NC(=O)Cn2c(-c3ccc4c(c3)OCO4)cn(-c3ccccc3)c2=O)cc1 | inactive: 26.8%
42 | Cc1ccc2c(c1)c1c(c(=O)n(Cc3ccccc3)c(=O)n1CC(=O)Nc1ccccc1C)n2C | inactive: -14.8%
43 | COC1=C2C[C@@H](C)C[C@H](OC)[C@@H](O)[C@@H](C)C=C(C)[C@H](OC(N)=O)[C@@H](OC)C=CC=C(C)C(=O)NC(=CC1=O)C2=O | inactive: -65%
44 | COc1ccc(-c2c3c(=O)n(C)c(=O)n(C)c3c3c(-c4ccc(C)cc4)nc4ccccc4n23)cc1 | inactive: 8.66% [at 11.5 µM, percent change from vehicle, -100% = no light]
45 | CCC(C(=O)Nc1cccc(C#N)c1)n1c(=O)c(-c2ccccc2NC(C)=O)nc2ccccc21 (stereo not given) | inactive: -51.7%
